Reference: PubChem BioAssay (Tox21)
This list was built around the results that the source calls inconclusive (neither active nor inactive); the mix of calls is not that of the screen. For part of these data: Where the call is inconclusive, the potency comes from a doubtful curve fit. Active and inactive are the calls of the source. Unless noted, calls come from the whole dose curve; as a rule, active = well fitted curve in the direction sought with a large enough effect in the repeat runs; inconclusive = weak or mixed curves; inactive = no such curve, though single readings can be large; an effect the other way counts as inactive or inconclusive.

Experiments:
[1] = qHTS assay for small molecule agonists of the antioxidant response element (ARE) signaling pathway (AID 743202; active = well fitted activation curve with a large enough effect in the signal ratio in the repeat runs, not every such curve was filed as active; inconclusive = weak or mixed curves, or effect the other way; inactive = no such curve, though single readings can be large or run the other way; the % refers to the signal ratio; note: potency is the fitted concentration of half-maximal effect; for activation: % is set by controls: 0 for no effect and ±100 for the full control effect); settings: HepG2 ARE-bla reporter, beta-lactamase FRET, 16 h; activation: at 73.3 µM (top of the series) unless noted
Outline: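 Read-out: LiveBLAzer B/G FRET substrate fluorescence after 2 h at room temperature, following 16 h compound treatment at 37 C of HepG2 cells carrying an ARE-driven beta-lactamase reporter.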

[2] = qHTS assay to identify small molecule agonists of the peroxisome proliferator-activated receptor delta (PPARd) signaling pathway - cell viability counter screen (AID 743211); settings: PPARd-bla HEK293H viability, CellTiter-Glo luminescence, 17 h; activity change, negative = cytotoxicity: at 62.6 µM (top of the series) unless noted; note: nearly all actives have a fitted effect of over 55% in size; note: potency is the fitted concentration of half-maximal effect
Outline: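 Viability of GeneBLAzer PPARd UAS-bla HEK293H cells was assessed after 17 h compound incubation at 37C, using CellTiter-Glo reagent added after the reporter read and luminescence recorded 30 min later.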

[3] = qHTS assay to identify small molecule antagonists of the peroxisome proliferator-activated receptor delta (PPARd) signaling pathway - cell viability counter screen (AID 743213); settings: PPARd-bla HEK293H viability, CellTiter-Glo luminescence, 17 h; viability change, negative = cytotoxic: at 62 µM (top of the series) unless noted; note: nearly all actives have a fitted effect of over 50% in size; note: potency is the fitted concentration of half-maximal effect
Outline: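 Same-well viability: cells pre-incubated 5 h, dosed with compound plus 300 nM L165041, kept 17 h at 37 C, FRET substrate 2 h RT, then CellTiter-Glo 30 min RT and luminescence.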

[4] = qHTS assay to identify small molecule agonists of the farnesoid-X-receptor (FXR) signaling pathway - cell viability counter screen (AID 743218); settings: FXR-bla HEK293T viability, CellTiter-Glo luminescence, 16 h; viability change, negative = cytotoxic: at 62.6 µM (top of the series) unless noted; note: nearly all actives have a fitted effect of over 45% in size; note: potency is the fitted concentration of half-maximal effect
Outline: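 FXR-UAS-bla HEK 293T cells exposed to compounds for 16 h at 37C. Cytotoxicity read in the same wells by CellTiter-Glo luminescence after 30 min at room temperature, following the beta-lactamase FRET read.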

[5] = biological target: Vitamin D3 receptor (Homo sapiens) (UniProt P11473); experiment: qHTS assay to identify small molecule agonists of the vitamin D receptor (VDR) signaling pathway (AID 743222; calls by dose curve; note: potency is the fitted concentration of half-maximal effect; for activation: % is set by controls: 0 for no effect and ±100 for the full control effect); settings: HEK293T VDR-UAS-bla, beta-lactamase FRET ratio, 16 h; activation: at 63.5 µM (top of the series) unless noted
UniProt P11473, sequence (P11473 whole entry, looked up): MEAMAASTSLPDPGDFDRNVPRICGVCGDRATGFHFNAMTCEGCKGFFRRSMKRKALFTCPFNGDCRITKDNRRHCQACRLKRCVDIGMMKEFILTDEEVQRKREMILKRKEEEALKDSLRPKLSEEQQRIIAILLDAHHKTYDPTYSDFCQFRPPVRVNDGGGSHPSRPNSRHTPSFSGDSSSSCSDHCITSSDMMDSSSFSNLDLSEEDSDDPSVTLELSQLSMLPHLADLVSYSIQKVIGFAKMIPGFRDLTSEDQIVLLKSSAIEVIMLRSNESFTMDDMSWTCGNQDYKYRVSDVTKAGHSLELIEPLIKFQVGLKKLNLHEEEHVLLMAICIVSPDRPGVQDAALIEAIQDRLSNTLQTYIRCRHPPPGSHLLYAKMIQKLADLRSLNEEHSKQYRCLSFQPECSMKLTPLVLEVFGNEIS
Outline: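 VDR-bla cells plated 4 h at 37 C, then exposed to compounds for 16 h at 37 C. Beta-lactamase reporter activity measured by fluorescence after 2 h room-temperature loading with LiveBLAzer B/G FRET substrate.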

[6] = biological target: Vitamin D3 receptor (Homo sapiens) (UniProt P11473); experiment: qHTS assay to identify small molecule antagonists of the vitamin D receptor (VDR) signaling pathway (AID 743223; active = well fitted inhibition curve with a large enough effect in the signal ratio in the repeat runs, not every such curve was filed as active; inconclusive = weak or mixed curves, or effect the other way; inactive = no such curve, though single readings can be large or run the other way; the % refers to the signal ratio; note: % is set by controls: 0 for no effect and ±100 for the full control effect); settings: VDR-UAS-bla HEK293T, beta-lactamase FRET ratio, 16 h; activity change, negative = inhibition: at 61 µM (top of the series) unless noted
Outline: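 Fluorescence from LiveBLAzer B/G FRET substrate, read after 2 h at room temperature, reflects beta-lactamase reporter activity in VDR-bla cells treated 16 h at 37C with compounds and agonist 1alpha,25-dihydroxyvitamin D3 (3 nM final).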

[7] = biological target: Peroxisome proliferator-activated receptor delta (Homo sapiens) (UniProt Q03181); experiment: qHTS assay to identify small molecule agonists of the peroxisome proliferator-activated receptor delta (PPARd) signaling pathway (AID 743212; calls by dose curve; note: potency is the fitted concentration of half-maximal effect); settings: HEK293H PPARd-UAS-bla, beta-lactamase FRET ratio, 17 h; activation: at 62.6 µM (top of the series) unless noted
UniProt Q03181, sequence (Q03181 whole entry, looked up): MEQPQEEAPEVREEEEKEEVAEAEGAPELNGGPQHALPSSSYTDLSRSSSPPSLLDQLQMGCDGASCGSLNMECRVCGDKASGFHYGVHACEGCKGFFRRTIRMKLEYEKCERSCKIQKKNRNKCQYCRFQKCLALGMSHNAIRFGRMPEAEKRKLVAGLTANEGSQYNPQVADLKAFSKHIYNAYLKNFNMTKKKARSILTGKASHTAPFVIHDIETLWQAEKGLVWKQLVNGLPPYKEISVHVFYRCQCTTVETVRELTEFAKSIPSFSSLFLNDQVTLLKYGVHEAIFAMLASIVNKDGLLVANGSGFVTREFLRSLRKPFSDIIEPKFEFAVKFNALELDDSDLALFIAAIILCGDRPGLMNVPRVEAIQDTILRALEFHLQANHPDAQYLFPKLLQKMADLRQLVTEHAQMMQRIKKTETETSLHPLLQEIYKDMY
Outline: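 GeneBLAzer PPARd UAS-bla HEK293H cells (beta-lactamase reporter under UAS control), plated and rested 5 h at 37 C, then exposed to compounds in DMSO at 37 C; LiveBLAzer B/G FRET substrate added, 2 h room temperature, fluorescence read.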

[8] = biological target: Bile acid receptor (Homo sapiens) (UniProt Q96RI1); experiment: qHTS assay to identify small molecule antagonists of the farnesoid-X-receptor (FXR) signaling pathway (AID 743217; active = well fitted inhibition curve with a large enough effect in the signal ratio in the repeat runs, not every such curve was filed as active; inconclusive = weak or mixed curves, or effect the other way; inactive = no such curve, though single readings can be large or run the other way; the % refers to the signal ratio; note: potency is the fitted concentration of half-maximal effect); settings: HEK293T FXR-UAS-bla, beta-lactamase ratio, CDCA-stimulated, 16 h; activity change, negative = inhibition: at 62.6 µM (top of the series) unless noted
UniProt Q96RI1, sequence (Q96RI1 whole entry, looked up): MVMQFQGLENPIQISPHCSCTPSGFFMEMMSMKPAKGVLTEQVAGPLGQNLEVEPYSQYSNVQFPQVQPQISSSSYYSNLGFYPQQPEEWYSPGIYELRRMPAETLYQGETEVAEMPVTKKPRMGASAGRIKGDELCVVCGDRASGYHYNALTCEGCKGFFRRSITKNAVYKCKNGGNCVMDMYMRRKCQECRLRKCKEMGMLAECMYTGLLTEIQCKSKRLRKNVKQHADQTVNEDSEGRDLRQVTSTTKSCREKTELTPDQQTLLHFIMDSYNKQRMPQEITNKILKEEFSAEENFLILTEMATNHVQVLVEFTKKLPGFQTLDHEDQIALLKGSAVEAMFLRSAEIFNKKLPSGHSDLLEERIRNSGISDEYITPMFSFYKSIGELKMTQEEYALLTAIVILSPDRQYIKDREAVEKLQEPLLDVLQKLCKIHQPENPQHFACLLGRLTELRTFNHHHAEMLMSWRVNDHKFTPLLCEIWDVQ
Outline: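 FXR-UAS-bla HEK 293T cells (beta-lactamase reporter) given compound plus chenodeoxycholic acid (50 uM final), 16 h at 37C. LiveBLAzer B/G FRET substrate added for 2 h at room temperature; fluorescence read.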

[9] = biological target: Bile acid receptor (Homo sapiens) (UniProt Q96RI1); experiment: qHTS assay to identify small molecule agonists of the farnesoid-X-receptor (FXR) signaling pathway (AID 743220; active = well fitted activation curve with a large enough effect in the signal ratio in the repeat runs, not every such curve was filed as active; inconclusive = weak or mixed curves, or effect the other way; the % refers to the signal ratio; note: % is set by controls: 0 for no effect and ±100 for the full control effect); settings: HEK293T FXR-UAS-bla, beta-lactamase FRET ratio, 16 h; activation: at 62.6 µM (top of the series) unless noted
Outline: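 Beta-lactamase reporter under UAS control in GeneBLAzer FXR HEK 293T cells (5000/well) measured with LiveBLAzer FRET substrate after 2 h at room temperature. Compound exposure lasted 16 h at 37C.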

[10] = biological target: Peroxisome proliferator-activated receptor delta (Homo sapiens) (UniProt Q03181); experiment: qHTS assay to identify small molecule antagonists of the peroxisome proliferator-activated receptor delta (PPARd) signaling pathway (AID 743215; active = well fitted inhibition curve with a large enough effect in the signal ratio in the repeat runs, not every such curve was filed as active; inconclusive = weak or mixed curves, or effect the other way; inactive = no such curve, though single readings can be large or run the other way; the % refers to the signal ratio;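 note: cells stimulated with agonist L165041 at 300 nM final during compound exposure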; note: potency is the fitted concentration of half-maximal effect); settings: HEK293H PPARd-UAS-bla, beta-lactamase FRET ratio, antagonist, 17 h; ratio activity, negative = inhibition: at 62 µM (top of the series) unless noted
Outline: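 PPARd-bla HEK293H cells (UAS-bla reporter) preincubated 5 h, then given compound plus 300 nM final L165041 agonist for 17 h at 37 C. Beta-lactamase activity read by LiveBLAzer B/G FRET substrate fluorescence after 2 h at room temperature.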

[11] = qHTS assay for small molecule activators of the heat shock response signaling pathway (AID 743210; active = well fitted activation curve with a large enough effect in the signal ratio in the repeat runs, with a control signal flat, not every such curve was filed as active; inconclusive = weak or mixed curves; the % refers to the signal ratio; note: potency is the fitted concentration of half-maximal effect); settings: HeLa HSE-bla reporter, beta-lactamase ratio, 5 h; activation: at 62.6 µM (top of the series) unless noted
Outline: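 HSE-bla HeLa cells (beta-lactamase reporter under heat shock response elements) were exposed to compounds for 5 h at 37 C, then loaded with LiveBLAzer B/G FRET substrate for 2.5 h at room temperature before fluorescence reading.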

[12] = qHTS assay to identify small molecule agonists of the vitamin D receptor (VDR) signaling pathway - cell viability counter screen (AID 743224); settings: VDR-bla HEK293T viability, CellTiter-Glo luminescence, 16 h; activity change, negative = cytotoxicity: at 62.6 µM (top of the series); note: nearly all actives have a fitted effect of over 50% in size; note: potency is the fitted concentration of half-maximal effect
Outline: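 VDR-bla cells, 4 h after plating, exposed to compounds for 16 h at 37C; viability then read in the same wells as CellTiter-Glo luminescence after 30 min at room temperature, following the bla FRET read.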

[13] = qHTS assay to identify small molecule antagonists of the farnesoid-X-receptor (FXR) signaling pathway - cell viability counter screen (AID 743221; active = well fitted cell-killing curve with a large enough effect in the repeat runs, not every such curve was filed as active; inconclusive = weak or mixed curves, or effect the other way; inactive = no such curve, though single readings can be large or run the other way; note: potency is the fitted concentration of half-maximal effect; nearly all actives have a fitted effect of over 50% in size); settings: FXR-bla HEK293T viability, CellTiter-Glo luminescence, 16 h; activity change, negative = cytotoxicity: at 62.6 µM (top of the series) unless noted
Outline: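 Quantitative HTS of the Tox21 10K library run in parallel with the beta-lactamase reporter read. HEK 293T cells carrying a UAS-driven bla reporter got compound and 50 uM CDCA (final) for 16 h; ATP-based luminescence followed.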
Tags give direction and shape of the fitted curve or compound fluorescence and quenching.

## Nc1ncnc2c1ncn2[C@@H]1O[C@H](COP(=O)(O)O)[C@@H](O)[C@H]1O
[1]
  Potency: inactive
[2]
  Potency: active: 10.6 µM
[3]
  Potency: active: 11.9 µM
[4]
  Potency: inconclusive: 13.3 µM [cytotoxic, partial curve]

## Nc1c(Cl)cc(Cl)cc1Cl
[1]
  Potency: inactive
[3]
  Potency: inconclusive: 0.171 µM [cytotoxic, single point]
[5]
  Potency: inactive
[6]
  activity change, negative = inhibition: inconclusive: 10.6%

## CCC(N)(CO)CO
[1]
  activation: inconclusive: -7.62% [at 94.8 µM]
[3]
  Potency: inconclusive: 22.1 µM [cytotoxic, single point]

## Cc1c(C(N)=O)cc([N+](=O)[O-])cc1[N+](=O)[O-]
[1]
  activation: inconclusive: 20.8%
[7]
  Potency: inconclusive: 13.3 µM [rising, single point]

## Cc1ccc([N+](=O)[O-])c(N)c1
[1]
  Potency: inactive
[3]
  Potency: inactive

## C=CC(=O)OCCCC
[1]
  Potency: inactive
[8]
  Potency: inactive
[4]
  Potency: inactive
[9]
  Potency: inactive
[5]
  Potency: inconclusive: 56.6 µM [activator, single point]

## CN1CCN(N)CC1
[1]
  Potency: inactive
[3]
  Potency: inactive
[9]
  Potency: inactive

## CN(C)C(=O)Oc1ccc[n+](C)c1
[1]
  Potency: inactive
[3]
  Potency: inconclusive: 33.5 µM [cytotoxic, single point]
[10]
  Potency: inconclusive: 2.11 µM [rising, partial curve, poor fit]

## Cn1c(N)nc2nc[nH]c2c1=O
[1]
  Potency: inactive
[3]
  Potency: inactive
[10]
  Potency: inactive

## CC(=O)OCC(C)OC(C)=O (stereo not drawn)
[1]
  activation: inconclusive: -6.75%
[2]
  Potency: inactive
[4]
  Potency: inconclusive: 7.76 µM [rising, full curve]
[5]
  Potency: inactive

## CCN(Cc1ccncc1)C(=O)C(CO)c1ccccc1 (stereo not drawn)
[1]
  activation: inconclusive: -7.05%
[3]
  Potency: inactive

## Clc1cccc(Cl)c1NC1=NCCN1
[1]
  Potency: inactive
[2]
  Potency: inconclusive: 54.9 µM [cytotoxic, single point]

## C=C(C)C(=O)OCCOc1ccccc1
[1]
  Potency: inactive
[11]
  Potency: inconclusive: 58.2 µM [activator]
[12]
  Potency: inconclusive: 54.9 µM [cytotoxic, single point]

## CC(C)C(O)(c1ccc(OC(F)(F)F)cc1)c1cncnc1 (stereo not drawn)
[1]
  activation: inconclusive: 16.6%
[3]
  Potency: inconclusive: 10.9 µM [cytotoxic, single point]

## O=C(O)C1CCC(C(=O)O)CC1 (stereo not drawn)
[1]
  Potency: inactive
[8]
  activity change, negative = inhibition: inconclusive: -24.2%
[13]
  Potency: inconclusive: 61.5 µM [falling, single point]

## ClC/C=C\CCl
[1]
  Potency: inconclusive: 28.4 µM
[4]
  Potency: inconclusive: 9.07 µM [rising, full curve, poor fit]

## OC/C=C/CO
[1]
  Potency: active: 21.6 µM
[4]
  Potency: inconclusive: 0.0049 µM [rising, full curve, poor fit]

## CN(C/C=C/C#CC(C)(C)C)Cc1cccc2ccccc12
[1]
  activation: inconclusive: 0.272%
[2]
  Potency: inconclusive: 33.5 µM [cytotoxic, single point]
[8]
  Potency: inconclusive: 18.8 µM [inhibitor, partial curve]
[4]
  Potency: inconclusive: 29.8 µM [cytotoxic, single point]
[13]
  Potency: inconclusive: 26.6 µM [falling, partial curve, poor fit]
[6]
  Potency: inactive
[12]
  Potency: inconclusive: 26.6 µM [cytotoxic, single point]

## Nc1ccc(Oc2ccc(Cl)cc2)cc1
[1]
  activation: inconclusive: 41.3%
[2]
  Potency: inconclusive: 60.3 µM [cytotoxic, partial curve, poor fit]
[5]
  Potency: inconclusive: 21.4 µM [rising, partial curve]

## CSC(=O)c1cccc2nnsc12
[2]
  Potency: inactive
[3]
  Potency: inconclusive: 0.174 µM [cytotoxic, full curve, poor fit]
[4]
  Potency: inconclusive: 0.0044 µM [rising, full curve, poor fit]
[6]
  Potency: inactive

## O=C1CC2CC1C1CCCC21 (stereo not drawn)
[1]
  activation: inconclusive: -7.83%
[12]
  Potency: inactive

## CCC(C)OC(C)CC (stereo not drawn)
[1]
  activation: inconclusive: 22.5% [at 94.8 µM]
[6]
  activity change, negative = inhibition: inconclusive: 9.36% [at 78.8 µM]

## CC(C)c1cccc(C(C)C)c1N
[11]
  Potency: inactive

## OC[C@@H](O)[C@@H](O)[C@H](O)[C@@H](O)CO
[1]
  activation: inconclusive: -18.1%
[5]
  Potency: inconclusive: 10.5 µM [rising, full curve, poor fit]

## COC(=O)CCCC(=O)OC
[11]
  Potency: inactive
[4]
  Potency: inactive
[6]
  activity change, negative = inhibition: inconclusive: -10%

## C=C(C)C1CC=C(C)C(OC(C)=O)C1 (stereo not drawn)
[1]
  activation: inconclusive: 9.64%
[6]
  activity change, negative = inhibition: inconclusive: 16.5%

## CN(C(=O)CN(CCO)CC(=O)N(C)C(C)(C)Cc1ccccc1)C(C)(C)Cc1ccccc1
[11]
  Potency: inconclusive: 23.7 µM [falling, partial curve]
[2]
  Potency: inconclusive: 29.8 µM [cytotoxic, single point]
[4]
  Potency: inconclusive: 9.44 µM [cytotoxic, single point]
[5]
  activation: inconclusive: -2.56%
